Reference: patent EP4644423A1 (Biyopharma Co., Ltd, dated 2025)

Biological target: CGRP receptor on SK-N-MC cells (UniProt O60894 27-148; Q16602 23-461, limits assumed)
Test: cell-based or functional assay

Chain of UniProt O60894 (O60894 27-148 limits assumed, chain 1 of 2): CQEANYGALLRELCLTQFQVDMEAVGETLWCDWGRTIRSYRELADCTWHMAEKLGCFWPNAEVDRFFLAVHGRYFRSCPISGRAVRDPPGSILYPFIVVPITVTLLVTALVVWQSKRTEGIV
Chain of UniProt O60894 (Q16602 23-461 limits assumed, chain 2 of 2, further chain): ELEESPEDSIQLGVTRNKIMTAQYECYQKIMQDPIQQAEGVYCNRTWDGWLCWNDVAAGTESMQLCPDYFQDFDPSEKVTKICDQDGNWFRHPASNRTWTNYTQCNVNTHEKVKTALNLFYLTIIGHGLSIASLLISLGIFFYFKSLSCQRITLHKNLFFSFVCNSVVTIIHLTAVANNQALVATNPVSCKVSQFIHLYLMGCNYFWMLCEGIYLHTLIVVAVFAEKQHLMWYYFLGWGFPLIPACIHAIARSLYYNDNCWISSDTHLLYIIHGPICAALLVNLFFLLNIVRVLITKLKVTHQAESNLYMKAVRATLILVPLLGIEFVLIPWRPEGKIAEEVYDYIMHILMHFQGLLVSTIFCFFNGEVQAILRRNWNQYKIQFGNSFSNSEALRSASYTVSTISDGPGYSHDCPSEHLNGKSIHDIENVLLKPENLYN

IC50 of inhibition of CGRP-induced cAMP production, against the prototype (42wtFc): 2 fold better than the prototype
B1: 42hv10Fc (Fc fusion)
chain: QVQLVESGGGLVQPGGSLRLSCAASGRTFSGYVMGWFRQAPGKGLEFVAALRWSSSNTNYAASVKGRFTISRDYAKDTVYLQMNSLRAEDTAVYYCAAKRDRPYGSTWTPVAADYDTWGQGTLVTVSS[human IgG1 Fc with changes not written out]
